In PubChem BioAssay AID588855 (National Center for Advancing Translational Sciences (NCATS), 2011):
Among all 410,000 compounds or so, about 5,000 (1.2%) were called active. Inconclusive means that the source gave no clear call. Such entries were picked first, then a sample of the others. Calls come from the whole dose curve; as a rule, active = well fitted inhibition curve with a large enough effect; inconclusive = small, poorly fitted or top-dose-only effect; inactive = no such curve, though single readings can be large or run the other way. Potencies of inconclusive entries are doubtful fits and often do not repeat.

Experiment: qHTS for Inhibitors of TGF-b; note: nearly all actives have a fitted effect of over 65% in size
Conditions: HepG2 CAGA-GFP TGF-b/SMAD3 reporter, GFP fluorescence, 18 h, TGF-beta stimulated, 500 pg/mL final; series mostly up to 46.1 µM
Excerpt: TGF-b is a main component in the TGF-b signaling pathway which plays diverse roles in cellular and development pathways. TGF-b is the mediated by the transcription factors Smads. Although the Smad-dependent pathway is the primary canonical TGF-b signaling node, TGF-b1 can also activate alternative signaling pathways, including those involving MAPK (ERK, JNK and p38). This interaction may mediate or enhance Smad-dependent responses, or can exert Smad-independent effects. The complexity of this signaling cascade allows the TGF-b superfamily to perform unique, overlapping or redundant functions. We believe that targeting the TGF-beta pathway at the Smad-transcription factor level may eliminate the consequences of disrupting the entire pathway and offer specificity without affecting other signaling pathways. Smad3 is the primary transducer of TGF-b's signals and Smad3 regulates many functions attributed to TGF-b signaling. We hypothesize that Smad3 inhibitors will selectively eliminate Smad3-specific TGF-beta signals without undesired off-target effects. We aim to identify Smad3-small molecule antagonists using a quantitative high throughput screening (qHTS) approach.
A high-throughput assay was developed to screen the NIH Molecular Libraries Small Molecule Repository (MLSMR). This is a cell based assay, where TGF-b is tagged with GFP. A counterscreen is run that looks at cytotoxicity (please see summary AID).
MH087449NIH Chemical Genomics Center [NCGC]
NIH Molecular Libraries Probe Centers Network [MLPCN]
Assay Submitter (PI): Sushil Rane, National Institute of […]
Suspensions of trypsinized HEPG2 CAGA-GFP cells were dispensed into white, tissue culture-treated, solid 1536-well plates at 5uL/well (1000 cells/well final concentration) in DMEM medium supplemented with 1% FBS. Plates were incubated at 37 degrees C for 2 hours, after which 23 nL of compounds or DMSO were delivered to each well using a pin tool. One uL of recombinant TGF-beta in DMEM (1% FBS) was then dispensed (500 pg/mL final concentration), and plates were incubated at 37 degrees C for 18 hours. The plates were measured on an Acumen eX3 Explorer plate reader for GFP fluorescence (ex488/em500-530). GFP values were calculated by determining the mean GFP fluorescence of individual cells, and compiling these values for each well to determine a total well GFP signal. The %Activity was determined from the corrected fluorescence values. A titration of the known TGF-B inhibitor SB431542 was included to monitor plate performance, while unstimulated HEPG2 (-TGF-B) control wells were used to normalize %Activity of identified inhibitors; unstimulated wells corresponded to 100%Activity (full inhibition), while stimulated cell controls (+DMSO) were used to normalize 0%Activity (no inhibition).
Concentration-response curves were fitted to the signals arising from the resulting fluorescence. The concentration-effect curves were then classified based on curve quality (r2), response magnitude and degree of measured activity, and compounds were subsequently categorized based on their curve class.
Potency is the fitted concentration of half-maximal effect; tags give direction and shape of the fitted curve.

SMILES | Potency
COc1ccc2ccc(O)c(CN3CC=C(c4ccccc4)CC3)c2c1 | inconclusive: 11.2 µM [inhibitor, single point]
CN1C(=O)/C(=C/C=C/c2ccco2)C(=O)NC1=S | inconclusive: 3.16 µM [inhibitor, single point]
C[C@H](CO)N1C[C@H](C)[C@@H](CN(C)S(=O)(=O)c2cccs2)Oc2ccc(NC(=O)Nc3ccc(C(F)(F)F)cc3)cc2C1=O | inconclusive: 10 µM [inhibitor, partial curve, poor fit]
Cc1cc(=O)oc2cc3c(cc12)CCCN3 | inactive
O=C1NC(=S)NC(=O)C1=Cc1ccc(Br)s1 | inconclusive: 35.5 µM [inhibitor, single point]
Oc1cc(Cl)cc(Cl)c1Cl | inconclusive: 17.8 µM [inhibitor, single point]
Cc1cccc(-n2c(O)c(C=NCCCN3CCOCC3)c(=O)[nH]c2=O)c1C | inactive
Cc1ccccc1S(=O)(=O)N1C[C@H]2[C@H]3C(=O)N(C4CCCCC4)C(=O)[C@H]3CC(=O)[C@H]2[C@@H]1c1ccc(Cl)cc1 | inconclusive: 25.1 µM [inhibitor, single point]
Cc1ccc(C)c(N2CCN(C(=O)C3CCCN(S(=O)(=O)c4cccc5nsnc45)C3)CC2)c1 (configuration not stated) | inconclusive: 0.562 µM [inhibitor, full curve]
O=C1CN=C(c2ccccc2)c2cc(Br)ccc2N1Cc1cc(=O)n2ccccc2n1 | inconclusive: 15.8 µM [inhibitor, single point]
COc1cc(/C=N/NC(=O)Cn2c([N+](=O)[O-])cnc2C)ccc1OC(=O)N(C)C | inconclusive: 12.6 µM [inhibitor, single point]
O=[N+]([O-])c1cccc(NP(=O)(Oc2ccccc2)Oc2ccccc2)c1 | inconclusive: 35.5 µM [inhibitor, single point]
CC(C)c1ccc(NC(=O)Nc2nc(C(N)CCc3ccccc3)cs2)cc1 (configuration not stated) | inconclusive: 25.1 µM [inhibitor, single point]
CSc1ccc(CN2CCN(C(=O)Cc3ccccc3)CC2)cc1 | inactive
Cc1ccc(NC(=O)N(Cc2ccc3c(c2)OCO3)C2CCN(Cc3ccccc3)CC2)cc1F | inconclusive: 35.5 µM [inhibitor, single point]
CCOc1ccc(S(=O)(=O)NCc2ccc3c(c2)OCO3)cc1C | inconclusive: 10 µM [inhibitor, partial curve, poor fit]
CCCCN1CC(=O)N2[C@H]3c4cc(C)ccc4OC[C@@H]3[C@H](c3ccccc3)[C@]2(C)C1=O | inconclusive: 3.55 µM [inhibitor, single point]
c1cc2c(cc1NC1=NCCO1)CCCC2 | inconclusive: 28.2 µM [inhibitor, single point]
NCCc1ccccc1 | inactive
CCN(C(=O)COC(=O)c1cn(C)c2ccccc12)c1ccc(F)cc1 | inactive
CC(C)(C)n1nnnc1C(CCc1ccccc1)N1CCC(n2c(=O)[nH]c3ccccc32)CC1 (configuration not stated) | inconclusive: 25.1 µM [inhibitor, single point]

SMILES | Potency
Cc1cccc(OP(=O)(Nc2ccc(F)cc2)Oc2cccc(C)c2)c1 | inconclusive: 17.8 µM [inhibitor, single point]
COc1ccc(C[C@@H]2c3cc(O)c(OC)cc3CCN2C)cc1O | inactive
O=C(N/N=C1/CN2CCC1CC2)c1cc2ccccc2cc1O | inactive
CCCCCSc1cc(OC)c(CCNC)cc1OC | inconclusive: 25.1 µM [inhibitor, single point]
CCCCOc1ccc(C(=O)NCCc2csc(-c3ccc(OC)cc3)n2)cc1 | inconclusive: 14.1 µM [inhibitor, partial curve, poor fit]
Oc1ccc2ccccc2c1CN1CC=C(c2ccccc2)CC1 | inactive
COc1ccc(NC(=O)CN2C(=O)C(C)N=C(c3ccccc3F)c3cc(Cl)ccc32)c(OC)c1 (configuration not stated) | inconclusive: 22.4 µM [inhibitor, single point]
CCN1CCN(Cc2cc(Br)cc(OC)c2O)CC1 | inconclusive: 5.62 µM [inhibitor, single point]
COc1ccc(-n2c(-c3ccco3)nc3ccccc3c2=O)cc1 | inactive
O=C1NC(=O)C(=Cc2ccc(SC3CCCCC3)o2)C(=O)N1 | inconclusive: 22.4 µM [inhibitor, single point]
O=C1NCN(c2ccccc2)C12CCN(C(c1ccccc1OC(F)(F)F)c1nnnn1Cc1ccccc1)CC2 (configuration not stated) | inconclusive: 11.2 µM [inhibitor, partial curve, poor fit]
C#CCOc1cc(C2C3=C(COC3=O)Nc3cc4c(cc32)OCO4)ccc1OC (configuration not stated) | inconclusive: 5.01 µM [inhibitor, partial curve, poor fit]
COC(=O)C1=C(c2ccc(Cl)c(C(F)(F)F)c2)C[C@@H]2CC[C@H]1N2C(=O)NCCOc1ccc(OC)cc1 | inconclusive: 20 µM [inhibitor, single point]
O=[N+]([O-])[N-][n+]1cnn(Cc2ccccc2)c1 | inactive
Cc1ccccc1N1CCN(C2CCCN(C(=O)COc3ccccc3)C2)CC1 (configuration not stated) | inconclusive: 3.55 µM [inhibitor, single point]
Cn1c(=O)oc2cc(NC(=O)CCl)ccc21 | inconclusive: 17.8 µM [inhibitor, single point]
COC(=O)C1=C(c2ccccc2)C[C@@H]2CC[C@H]1N2C(=O)NCCO | inconclusive: 14.1 µM [inhibitor, single point]
FC(F)(F)c1ccc2c(c1)N(CCCN1CCN(CCCl)CC1)c1ccccc1S2 | inconclusive: 35.5 µM [inhibitor, single point]
COc1cccc(N2C(=O)NC(=O)C3(Cc4cc(C)ccc4N(C)C3)C2=O)c1 (configuration not stated) | inconclusive: 5.62 µM [inhibitor, single point]
C#CCN1C(=O)S/C(=C\c2ccc(N3CCOCC3)cc2C)C1=O | inconclusive: 7.94 µM [inhibitor, partial curve, poor fit]
Cc1ccnc(NS(=O)(=O)c2cc([N+](=O)[O-])ccc2C)c1 | inconclusive: 0.447 µM [inhibitor, full curve]
